What is called EC50 is the concentration giving half of the maximal effect. Low values mean higher potency in that assay, high ones lower potency in that assay.

This passage reports EC50 results from patent publication US20250066451A1 (SWEDISH ORPHAN BIOVITRUM AB PUBL, published 2025).

The labels stand for the following.
T1: Human IL-1R-I-Fc (Creative BioMart cat. no. IL1RI-771H) (human, UniProt P14778 18-332, limits assumed)
T1 construct: bought protein; also called hIL-1R-I-Fc; hIL-1RI-Fc
T1 sequence (looked up): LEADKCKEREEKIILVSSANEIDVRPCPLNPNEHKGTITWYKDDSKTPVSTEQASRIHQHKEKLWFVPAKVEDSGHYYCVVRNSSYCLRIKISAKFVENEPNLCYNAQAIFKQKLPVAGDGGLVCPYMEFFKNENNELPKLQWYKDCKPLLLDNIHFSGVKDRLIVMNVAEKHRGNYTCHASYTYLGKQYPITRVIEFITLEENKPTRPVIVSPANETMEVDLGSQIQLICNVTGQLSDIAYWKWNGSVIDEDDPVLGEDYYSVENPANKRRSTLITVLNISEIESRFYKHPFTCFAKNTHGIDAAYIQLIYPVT

B1: Z16378-ABD (designed binder)
chain: AQHDEALEVDAKYAKEVESAYFEIFKLPNLTRKQYTAFIRKLLDDPSQSSELLSEAKKLNDSQAPKVDYVLAEAKVLANRELDKYGVSDYYKNLINNAKTVEGVKALIDEILAALPYVPG
B2: Z16681-ABD (designed binder)
chain: AQHDEALEVDAKYAKEVEYAYYEIFKLPNLTRKQYTAFIRKLLDDPSQSSELLSEAKKLNDSQAPKVDYVLAEAKVLANRELDKYGVSDYYKNLINNAKTVEGVKALIDEILAALPYVPG
B3: Z16688-ABD (designed binder)
chain: AQHDEALEVDAKYAKEVKDAQFEIFALPNLTRKQYTAFIRKLFDDPSQSSELLSEAKKLNDSQAPKVDYVLAEAKVLANRELDKYGVSDYYKNLINNAKTVEGVKALIDEILAALPYVPG
B4: Z17255-ABD (designed binder)
chain: AQHDEALEVDAKYAKEVEQAYYEIYALPNLTRKQYTAFIRKLLDDPSQSSELLSEAKKLNDSQAPKVDYVLAEAKVLANRELDKYGVSDYYKNLINNAKTVEGVKALIDEILAALPYVPG
B5: Z16749-ABD (designed binder)
chain: AQHDEALEVDAKYAKEVEAAYYEIYGLPNLTRKQYTAFIRKLLDDPSQSSELLSEAKKLNDSQAPKVDYVLAEAKVLANRELDKYGVSDYYKNLINNAKTVEGVKALIDEILAALPYVPG
B6: Z17244-ABD (designed binder)
chain: AQHDEALEVDAKYAKEVEDAYFEIYRLPNLTRKQYTAFIRKLLDDPSQSSELLSEAKKLNDSQAPKVDYVLAEAKVLANRELDKYGVSDYYKNLINNAKTVEGVKALIDEILAALPYVPG
B7: Z16678-ABD (designed binder)
chain: AQHDEALEVDAKYAKEVEVAYFEIYALPNLTRKQYTAFIRKLLDDPSQSSELLSEAKKLNDSQAPKVDYVLAEAKVLANRELDKYGVSDYYKNLINNAKTVEGVKALIDEILAALPYVPG
B8: Z16771-ABD (designed binder)
chain: AQHDEALEVDAKYAKEVEVAYMEIFQLPNLTRKQYTAFIRKLLDDPSQSSELLSEAKKLNDSQAPKVDYVLAEAKVLANRELDKYGVSDYYKNLINNAKTVEGVKALIDEILAALPYVPG
B9: Z17257-ABD (designed binder)
chain: AQHDEALEVDAKYAKEVEEAYMEIYGLPNLTRKQYTAFIRKLLDDPSQSSELLSEAKKLNDSQAPKVDYVLAEAKVLANRELDKYGVSDYYKNLINNAKTVEGVKALIDEILAALPYVPG
B10: Z16405-ABD (designed binder)
chain: AQHDEALEVDAKYAKETEDAYFEIYHLPNLTRKQYTAFIRKLLDDPSQSSELLSEAKKLNDSQAPKVDYVLAEAKVLANRELDKYGVSDYYKNLINNAKTVEGVKALIDEILAALPYVPG
B11: Z17270-ABD (designed binder)
chain: AQHDEALEVDAKYAKETEEAYFEIYRLPNLTRKQYTAFIRKLLDDPSQSSELLSEAKKLNDSQAPKVDYVLAEAKVLANRELDKYGVSDYYKNLINNAKTVEGVKALIDEILAALPYVPG
B12: Z17269-ABD (designed binder)
chain: AQHDEALEVDAKYAKEVEEAYQEIFHLPNLTRKQYTAFIRKLLDDPSQSSELLSEAKKLNDSQAPKVDYVLAEAKVLANRELDKYGVSDYYKNLINNAKTVEGVKALIDEILAALPYVPG
B13: Z16388-ABD (designed binder)
chain: AQHDEALEVDAKYAKEHEDAYMEIYALPNLTRKQYTAFIRKLLDDPSQSSELLSEAKKLNDSQAPKVDYVLAEAKVLANRELDKYGVSDYYKNLINNAKTVEGVKALIDEILAALPYVPG

For the experiment, the target named is T1, Human IL-1R-I-Fc (Creative BioMart cat. …). The experiment can be described thus: ELISA, hIL-1R-I-Fc titration on Z-ABD.
B1: the EC50 is 0.2 nM.
B2 registered an EC50 of 0.23 nM.
B3: the EC50 stood at 0.27 nM.
B4 had an EC50 of 0.25 nM.
In turn, B5 gave a 50% effective concentration (EC50) of 0.27 nM.
Take B6: the EC50 worked out at 0.42 nM.
Molecule B7 returned an EC50 of 0.24 nM.
Molecule B8 came in with an EC50 of 0.24 nM.
Under B9 stands 0.48 nM; under B10, 0.36 nM.
B11 yielded an EC50 of 0.3 nM.
With B12, the EC50 was 0.27 nM.
Regarding B13, a half-maximal response (EC50) required 0.29 nM.
